Laboratory results reported in PubChem BioAssay AID686978 (National Center for Advancing Translational Sciences (NCATS), 2013).
Among all 420,000 compounds or so, about 64,000 (15%) were called active. Inconclusive means that the source gave no clear call. Such entries were picked first, then a sample of the others. Calls follow the shape of the dose curve; as a rule, active = well fitted inhibition curve with a large enough effect; inconclusive = small, poorly fitted or top-dose-only effect; inactive = flat fitted curve, though single readings scatter. No potency is given beside an inconclusive call; the fits are too rough.

Experiment: qHTS for Inhibitors of human tyrosyl-DNA phosphodiesterase 1 (TDP1): qHTS in cells in absence of CPT; also: nearly all actives have a fitted effect of over 55% in size
Conditions: DT40 Tdp1-/- hTDP1 cells, no CPT, ATP luminescence, 48 h; activity change, negative = growth inhibition: at 46.2 µM (top of the series) unless noted
Method in brief: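 A cellular qHTS used chicken DT40 cells lacking endogenous Tdp1 but carrying stably transfected human TDP1. Compounds were applied without camptothecin, and cell growth kinetics were judged by ATP-dependent luminescence after ≥48 hr.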
% is scaled to controls: 0 for no effect and ±100 for the full control effect; potency is read from the fitted curve at half-maximal effect; tags tell the direction and shape of the fitted curve.

Row | Compound | Potency | activity change, negative = growth inhibition
1 | COc1ccc(CN2CC[C@H]3C=CC[C@@H](C(=O)NCc4cccnc4)[C@H]3C2=O)cc1OC | inactive | 
2 | Cc1cccc2cc3ccccc3nc12 | inconclusive [inhibitor, single point] | inconclusive: -31.4% [inhibitor]
3 | Cc1ccc(C)c(S(=O)(=O)N2CCCCC2CCNC(=O)C(=O)NCCc2ccco2)c1 (stereo unspecified) | inconclusive [inhibitor, single point] | 
4 | C/C(=N\NC(=O)c1cc(C)nc2ccccc12)c1ccccn1 | active: 0.731 µM | 
5 | Cc1cc(C(=O)Cn2cncn2)c(C)n1CCc1ccc(F)cc1 | inconclusive [inhibitor, single point] | 
6 | Cc1c(Cl)cccc1NC(=O)Nc1cc(C(C)(C)C)on1 | active: 14.6 µM | 
7 | CCOc1cc(C(=O)N2CCC3(CC2)NCCc2[nH]cnc23)cc(OCC)c1OCC | inactive | 
8 | CCOC(=O)C1(Cc2ccc(Cl)cc2)CCN(C(=O)C2CCCO2)CC1 (stereo unspecified) | inconclusive [inhibitor, single point] | 
9 | N#Cc1cccc(NC(=O)c2cc(C3CCCCN3C(=O)C3CC3)on2)c1 (stereo unspecified) | inconclusive [inhibitor, single point] | 
10 | CCN(CC(=O)Nc1ccccc1C(F)(F)F)C(=O)c1cccc(N2C(=O)CCC2=O)c1 | inactive | 
11 | COC(=O)c1ccc(COC(=O)C2CC(O)CN2S(=O)(=O)c2ccc([N+](=O)[O-])cc2)cc1 (stereo unspecified) | inconclusive [inhibitor, single point] | 
12 | Cn1c(=O)[nH]c(=O)c2c1nc(NCCCn1ccnc1)n2Cc1cccc(Br)c1 | inactive | 
13 | COc1ccc(CNn2c(-c3ccccc3F)nc3ccccc3c2=O)cc1OC | active: 18.4 µM | 
14 | COc1ccc(-c2nc(N)ncc2-c2ccccc2)c(O)c1 | inconclusive [inhibitor, partial curve, poor fit] | 
15 | Cc1c(NC(=O)c2cc(-c3cccs3)nc3ccccc23)c(=O)n(-c2ccccc2)n1C | active: 20.6 µM | 
16 | Cc1cccc(NC(=O)CSc2ccc(C(N)=O)cc2[N+](=O)[O-])c1C | inactive | 
17 | COc1ccc(Cc2c(-c3ccc(F)cc3)nc3c4ccccc4ccn23)c(C)c1 | inconclusive [inhibitor, single point] | 
18 | COc1ccc(C(CNC(=O)c2ccc(-c3cccc(C(F)(F)F)c3)o2)N2CCOCC2)cc1 (stereo unspecified) | active: 20.6 µM | 
19 | Clc1ccc(-c2cn(-c3ccc(Cl)cc3)c3[n+]2CCCCC3)cc1 | active: 7.31 µM | 
20 | COc1cc(OC)cc(-c2nc(SCC(=O)Nc3ccccc3F)n[nH]2)c1 | inconclusive [inhibitor, single point] | 
21 | Cc1cccc(NC(=O)c2sc3nc(N4CCOCC4)c4c(c3c2N)CCCC4)c1 | inconclusive [inhibitor, single point] | 
22 | CSc1ncccc1C(=O)Nc1nc(C(C)(C)C)cs1 | inconclusive [inhibitor, single point] | 
23 | CCc1ccccc1NC(=O)CN(Cc1ccccc1)S(=O)(=O)c1ccc2nc(C)sc2c1 | inconclusive [inhibitor, partial curve] | 
24 | O=C(Cn1c(-c2cccs2)cc2cc(Cl)ccc21)NCc1ccccc1 | inconclusive [inhibitor, single point] | 

Row | Compound | Potency | activity change, negative = growth inhibition
25 | CCc1cc(C(=O)Nc2cnn(Cc3ccc(F)cc3)c2)no1 |  | inconclusive: -33.3% [inhibitor]
26 | S=c1[nH]nc(-c2ccc3ccccc3n2)n1-c1ccccc1 | inactive | 
27 | CC(C)N(CCNC(=O)c1ccc(CS(=O)(=O)c2c(Cl)cccc2Cl)o1)Cc1ccccc1 | inconclusive [inhibitor, partial curve] | 
28 | Cc1ccccc1Cc1c(C)nc2nc(SCC(=O)NCCCN3CCCC3)nn2c1C | inactive | 
29 | O=C(NCc1csc(-c2cccs2)n1)Nc1cccc(Cl)c1 | inactive | 
30 | O=C(CSc1nc(-c2ccccc2)c(-c2ccccc2)[nH]1)NCc1ccco1 | inconclusive [inhibitor, single point] | 
31 | Cc1ccc2nc(/N=C(\N)NC(=O)N3c4ccccc4Sc4ccccc43)nc(C)c2c1 | active: 9.2 µM | 
32 | CCOC(=O)c1cnn(-c2ccccc2)c1-n1cccc1 | inactive | 
33 | Cc1ccc(NC(=O)CN(C)C(=O)CSc2nc3ccccc3o2)cc1 | inactive | 
34 | COC(=O)c1nc(-c2ccccc2)oc1N(C)C | inactive | 
35 | CCC(=O)N1CCc2cc(Br)cc(S(=O)(=O)NCCc3ccccc3Cl)c21 | active: 20.6 µM | 
36 | O=C1c2c(-c3ccc(Br)cc3)noc2CCN1Cc1cn(-c2ccc(Cl)cc2)nn1 | inconclusive [inhibitor, single point] | 
37 | Cc1ccc(-c2c(C(=O)N3CCN(c4cccc(C)c4C)CC3)oc(=O)c3ccccc23)cc1 | active: 20.6 µM | 
38 | CC(C)(C)c1cc(CCC(=O)N2CCCC2)cc(C(C)(C)C)c1O |  | inconclusive: -32.3% [inhibitor]
39 | O=C(COc1ccc(Cl)cc1Br)Nc1ccccc1N1CCCC1 | inconclusive [inhibitor, single point] | 
40 | CCOC(=O)[C@]12CCCC=C1N(CCC1=CCCCC1)C(=O)[C@H](CC(=O)NCc1ccc(OC)c(OC)c1)C2 | active: 14.6 µM | 
41 | O=C(NCCN1CCN(c2ccc([N+](=O)[O-])cc2)CC1)NCc1ccccc1 | active: 8.2 µM | 
42 | COc1ccc(OC)c(CCNC(=O)c2cc3c(-c4ccccc4F)nn(C)c3s2)c1 | active: 8.2 µM | 
43 | Cc1cccc(C(=O)OCC(=O)c2csc(N3CCCCC3)n2)c1[N+](=O)[O-] | inconclusive [inhibitor, single point] | 
44 | O=C(OC(C(=O)N1CCOCC1)c1ccccc1)c1c2c(nc3ccccc13)CCCC2 (stereo unspecified) | active: 14.1 µM | 
45 | Cc1ccc(C)c(N2CCN(C(=O)CCS(=O)(=O)c3cccc4nonc34)CC2)c1 | inactive | 
46 | N/C(=N\OC(=O)c1cnn(-c2ccccc2)c1C(F)(F)F)c1ccc(C(F)(F)F)cc1 |  | inconclusive: -32.1% [inhibitor]
47 | COc1ccc(C2Nc3ccccc3C(=O)N2NS(=O)(=O)c2ccc(C)cc2)cc1 (stereo unspecified) | inconclusive [inhibitor, single point] | 
48 | Cc1ccc(NS(=O)(=O)c2cccc(C(=O)N3CCCC(C)C3)c2)cc1 (stereo unspecified) | inconclusive [inhibitor, single point] | 

Row | Compound | Potency | activity change, negative = growth inhibition
49 | COCCCn1c(SCc2nc3ccccc3c(=O)[nH]2)nc2ccccc2c1=O | inconclusive [inhibitor, partial curve] | 
50 | CCCS(=O)(=O)c1nc(S(=O)(=O)c2ccc(C)cc2)c(N2CCc3ccccc3C2)s1 | inconclusive [inhibitor, single point] | 
51 | CC(=O)NC(Cc1cccc(C)c1)C(=O)NC1CCN(S(=O)(=O)c2ccccc2)CC1 (stereo unspecified) | inactive | 
52 | Cc1ccccc1NS(=O)(=O)c1ccc(C(=O)N2CCCCCC2)cc1 | inconclusive [inhibitor, single point] | 
53 | Cc1ccc(S(=O)(=O)/N=C(/Nc2ccc([N+](=O)[O-])cc2)c2ccccc2)cc1 | inconclusive [inhibitor, partial curve] | 
54 | O=c1cc(-c2ccccc2)nc(N2CCCCC2)[nH]1 | inconclusive [inhibitor, single point] | 
55 | Cn1c(NC(=O)c2ccccc2)nc2ccccc21 | inconclusive [inhibitor, partial curve] | 
56 | CCCn1c(N)c(C(=O)NS(=O)(=O)c2ccc(C)cc2)c(=O)n(C)c1=O | inconclusive [inhibitor, partial curve] | 
57 | COc1ccc(C)cc1NS(=O)(=O)c1ccc2c(c1)[C@H]1C=CC[C@H]1[C@@H](c1cccc(Cl)c1)N2 | active: 20.6 µM | 
58 | O=C1/C(=C\c2cc([N+](=O)[O-])ccc2O)SC(=S)N1Cc1ccc(Cl)cc1 | active: 3.66 µM | 
59 | O=C(O)CSc1ncnc2nc[nH]c12 | inactive | 
60 | S=C(NCCCCNC(=S)NCc1ccccc1)NCc1ccccc1 | inconclusive [inhibitor, single point] | 
61 | Nc1cccc(C(=O)OCC(=O)Nc2cccc3c2C(=O)c2ccccc2C3=O)c1 | active: 11.6 µM | 
62 | COc1ccc(S(=O)(=O)N2CCN(c3nc(-c4ccccc4)nc4ccccc34)CC2)cc1 | inconclusive [inhibitor, single point] | 
63 | O=C(OCc1ccc(COC(=O)c2ccc(O)cc2)cc1)c1ccc(O)cc1 | inconclusive [inhibitor, single point] | 
64 | CCCOc1cccc(C(=O)NC(=S)Nc2ccc(N3CCN(C)CC3)cc2)c1 | inconclusive [inhibitor, single point] | 
65 | Nc1c(N(CCC2=CCCCC2)C(=O)c2ccco2)c(=O)[nH]c(=O)n1Cc1ccccc1 | inconclusive [inhibitor, single point] | 
66 | C/C(=N\NC(=O)c1ccco1)c1cc2ccccc2o1 | inconclusive [inhibitor, single point] | 
67 | CC[C@@H]1C/C=C\Cc2ccccc2[C@@H](C(=O)C[C@H](O)CC(C)=O)OC1=O | inactive | 
68 | Cc1ccc(-c2cc(C(=O)NCc3ccccn3)c3ccccc3n2)cc1 | active: 16.4 µM | 
69 | COc1ccccc1CCNC(=O)CCn1c(=O)c2cccn2c2ccc(F)cc21 | active: 11.6 µM | 
70 | Cc1ccc(NC(=O)c2ccccc2OCC(=O)c2ccc(F)cc2)cc1 | inconclusive [inhibitor, single point] | 
